Test results: PubChem BioAssay AID1845215 (Molecular Pharmacology Branch, DTP, NCI, 2023)
The source holds more than one record for some entries. This is not the full list of results. There may be further records. Values given together are repeats across runs, samples, wells, individuals or studies. Counts like (3×) count equal records among those shown. A date in brackets names the month of the test.

Tested on: SW 1271 complex tumor spheroid viability
Assay: Anticancer human tumor SW 1271 cell line growth inhibition;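 further: spheroids exposed to agents for seven days before readout; percent of DMSO vehicle control luminescence so 100% = vehicle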
Details: stronger effect = lower value
Description: Multicellular complex tumor spheroid response to DNA repair inhibitors in combination with DNA-damaging drugs
This study explores the anticancer activities of DNA-damaging drugs and inhibitors of DNA damage repair, both as single agents and in combinations. Complex tumor spheroids comprised of malignant cells, endothelial cells and mesenchymal stem cells served as an in vitro model for human solid tumors. This model system incorporates physiologically relevant features and patient-derived or established malignant cell lines with clinically relevant genetic alterations from many tumor types. Twenty-six patient-derived or established malignant cell lines were evaluated representing sarcoma, melanoma, small cell lung cancer (SCLC), non-small cell lung cancer (NSCLC), as well as bladder, ovarian and pancreatic cancers. The concentration ranges selected for each drug and investigational agent were based upon clinically achievable concentrations if the clinical Cmax of the agent was known.
Compounds. The drugs and compounds olaparib (NSC753686), talazoparib (NSC767125), berzosertib (NSC777718), elimusertib (NSC800525), nedisertib (NSC802822), VX-984 (NSC792969), AZD-1390 (NSC803789), temozolomide (NSC362856), topotecan (NSC609699), trabectedin (NSC813783), staurosporine (NSC755774), and gemcitabine (NSC613327) were obtained from the National Cancer Institute (NCI) Developmental Therapeutics Program Chemical Repository. The FDA-approved anticancer drug set is available from the Developmental Therapeutics Program at https://dtp.cancer.gov/organization/dscb/obtaining/available_plates.htm. […] The stock solutions were prepared in dimethyl sulfoxide (DMSO, Sigma-Aldrich, St. Louis, MO, cat. D2650) at 400-fold the tested concentration and stored at -70 degrees C. Prior to their use, the stock solutions were diluted in fresh medium and the final DMSO concentration in the assay was 0.25% (v/v). All drugs and investigational agents were tested over a range starting from a high concentration at or near the clinical Cmax and decreasing in half-log increments. If the clinical Cmax for an agent had not been determined, the highest concentration tested was 10 microM.
Cell Lines. The patient-derived cancer cell (PDC) lines: 156681-154-R-J1-PDC, 283228-195-R-J1-PDC, 287954-098-R-J1-PDC, 292921-168-R-J2-PDC, 349418-098-R-PDC, 425362-245-T-J1-PDC, 556581-035-R-J1-PDC, and BL0293-F563-PDC were received from the NCI Patient-Derived Models Repository (PDMR, https://pdmr.cancer.gov). The established cell lines HS-SY-2 (RRID:CVCL_8719), MPNST, and SYO-1 (RRID:CVCL_7146) were obtained from the Sloan Kettering Institute. The alveolar soft parts sarcoma cell line ASPS-1 (RRID:CVCL_S738) was established at the NCI and grown from internal seed stocks. […]

SMILES | viability, T/C (compound alone 0.00949 µM) | viability, T/C (compound alone 10 µM) | viability, T/C (compound alone 31.6 µM) | viability, T/C (compound alone 100 µM)
CC[C@@]1(O)C(=O)OCc2c1cc1n(c2=O)Cc2cc3c(CN(C)C)c(O)ccc3nc2-1 | 39.4, 48.8, 47.2, 48, 49.1% [2019-11] and 60.9, 52.7, 54.3, 55.1, 34.1% [2019-12] |  |  | 
Cn1nnc2c(C(N)=O)ncn2c1=O |  | 102 (2×), 106, 105, 96.2, 101 (2×), 84.4, 97.2, 117% | 103 (2×), 111, 105 (2×), 106, 101, 29.9, 102, 109% | 84, 95.7, 89.5, 91.5, 85, 91.2, 10.4, 85.3, 87.5, 53.9%
